Reference: PubChem BioAssay AID686979 (National Center for Advancing Translational Sciences (NCATS), 2013)
Hit rate of the full screen: of about 420,000 compounds, about 50,000 (12%) were called active. The shares of active, inactive and inconclusive entries below differ from those in the screen. The call rests on the fitted dose curve; in most records, active means well fitted inhibition curve with a large enough effect; inconclusive means small, poorly fitted or top-dose-only effect; inactive means flat fitted curve, though single readings scatter. Potencies of inconclusive entries are left out as doubtful fits.

Assay: qHTS for Inhibitors of human tyrosyl-DNA phosphodiesterase 1 (TDP1): qHTS in cells in presence of CPT; further: nearly all actives have a fitted effect of over 55% in size
Details: chicken DT40 Tdp1-/-;hTDP1 cells + 20 nM CPT, ATP luminescence, 48 h; activity change, negative = growth inhibition: at 46.2 µM (top of the series) unless noted
How it was run: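 Chicken DT40 Tdp1-/- cells complemented with human TDP1, 400 cells/well, exposed to compounds plus 20 nM camptothecin for at least 48 h at 37 C; viability read as ATP content by CellTiter-Glo luminescence.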
On the % scale 0 is the no-effect control and ±100 the full control effect; potency means the concentration at half of the fitted maximal effect; tags describe the fitted curve by direction and shape.

With COc1ccc(CC(=O)NC(C)c2nnc(SCCC(=O)Nc3ccccc3)n2C)cc1 (stereo unspecified) as the compound, how does the Potency read?
Its Potency is inconclusive [inhibitor, full curve].

With O=C(CSc1nncn1-c1cccnc1)N1CCOCC1 as the compound, how does the Potency read?
Its Potency is “inactive”.

With CCOC(=O)c1c(N2C(=O)Nc3ccccc3N2O)n[nH]c1-c1cccc(OC)c1 as the compound, how does the Potency read?
Its Potency is “inactive”.

With Cc1ccccc1N1CCN(C2=NC(=O)/C(=C/c3cn[nH]c3-c3ccccc3)S2)CC1 as the compound, how does the Potency read?
Its Potency is inconclusive [inhibitor, full curve, poor fit].

For C=CCOc1ccc(CN(C)CC(=O)Nc2ccccc2[N+](=O)[O-])cc1, which Potency is on record?
The Potency was inconclusive [inhibitor, single point].

Which Potency does the source give for O=C(NCCc1ccccn1)c1cc(-c2ccccc2Cl)nc2ccccc12 here?
Its Potency is “inactive”.

With CC1(C(=O)NCc2ccncc2)Cc2c(-c3cccc(C(F)(F)F)c3)ccnc2O1 (stereo unspecified) as the compound, how does the Potency read?
The Potency was inconclusive [inhibitor, single point].

Which Potency does the source give for COc1ccc(-c2cccc(NS(=O)(=O)c3cc([N+](=O)[O-])ccc3C)c2)nn1 here?
The Potency was inconclusive [inhibitor, single point].

With CC(C)(C)OC(=O)NCCc1onc(-c2ccccc2F)c1C(=O)O as the compound, how does the Potency read?
The Potency was “inactive”.

With O=c1[nH]c(SCc2ccc(Cl)cc2)nc2[nH]ncc12 as the compound, how does the Potency read?
Its Potency is inconclusive [inhibitor, partial curve].

Which Potency does the source give for COC1OC2COC(c3ccccc3)OC2C(NC(C)=O)C1OC(C)=O (stereo unspecified) here?
Its Potency is “inactive”.

Which Potency does the source give for COCCCN1C(=O)C(=O)/C(=C(/O)c2ccc(S(=O)(=O)N3CCOCC3)cc2)C1c1ccc(OC)cc1 (stereo unspecified) here?
The Potency was “inactive”.

For COC(=O)c1ccc2nc(NC(=O)CN3C(=O)CCC3=O)sc2c1, which Potency is on record?
Its Potency is inconclusive [inhibitor, single point].

With CCOC(=O)c1c(C)[nH]c(C2=NNC(=NC(C)COC)SC2)c1C (stereo unspecified) as the compound, how does the Potency read?
The Potency was active: 20.6 µM.

With CC1(C(=O)Nc2cccc3cccnc23)CCN1Cc1cccc2c1OCO2 (stereo unspecified) as the compound, how does the Potency read?
Its Potency is inconclusive [inhibitor, single point].

Which Potency does the source give for CC1(C(=O)CSc2nc3ccccc3s2)CCC(=O)O1 (stereo unspecified) here?
The Potency was inconclusive [inhibitor, single point].

For O=C(c1ccc(OC2CCN(C/C=C/c3ccc(F)cc3)CC2)cc1)N1CCCC1, which Potency is on record?
Its Potency is active: 25.9 µM.

With Cc1ccc(C2=Nc3ccccc3N(CC(=O)NCc3ccc(Cl)cc3)C(=O)C2)cc1C as the compound, how does the Potency read?
The Potency was inconclusive [inhibitor, single point].

For COc1cccc(-c2ccc3c(N)c(C(=O)Nc4ccc(Cl)cc4F)sc3n2)c1, which Potency is on record?
Its Potency is “inactive”.

For O=C(COc1cccc2c1CCNC2=O)Nc1cccc(F)c1, which Potency is on record?
The Potency was inconclusive [inhibitor, single point].

Which Potency does the source give for CCc1ccccc1NC(=O)Cc1ccc(-n2c(C)nc3cccnc32)cc1 here?
Its Potency is inconclusive [inhibitor, single point].

Which Potency does the source give for CC(=O)Nc1nonc1-c1nnc(SCc2ccccc2C)n1C here?
Its Potency is inconclusive [inhibitor, single point].

With Cc1nc(SC(C(N)=O)c2ccccc2)c(C#N)c(C)c1C (stereo unspecified) as the compound, how does the Potency read?
Its Potency is “inactive”.

With CCCCCCCCCCn1c2c(c(=N)c3c1CCC3)CCC2 as the compound, how does the Potency read?
The Potency was active: 0.259 µM.

With CC1(C)C(=O)Nc2ccccc2N1C(=O)COc1cc(Cl)ccc1Cl as the compound, how does the Potency read?
The Potency was inconclusive [inhibitor, single point].

With O=[N+]([O-])c1cccc(Nc2c3ccccc3nc3ccccc23)c1 as the compound, how does the Potency read?
Its Potency is inconclusive [inhibitor, single point].

Which Potency does the source give for COc1ccc(C2SCC(=O)N2CCCN(C)C)cc1 (stereo unspecified) here?
Its Potency is “inactive”.

Which Potency does the source give for Cc1cccc(CSc2nc3cccnc3n2Cc2ccc(C(=O)NCc3cccs3)cc2)c1 here?
Its Potency is inconclusive [inhibitor, single point].

With Cc1cccc(NC(=O)CSCC(=O)Nc2cc(Cl)ccc2N2CCOCC2)c1 as the compound, how does the Potency read?
The Potency was inconclusive [inhibitor, single point].

For COc1cc(-c2cc(C(=O)Nc3c(Cl)cc(Cl)cc3Cl)c3ccccc3n2)cc(OC)c1OC, which Potency is on record?
The Potency was active: 20.6 µM.

For Cc1ccc(Cl)cc1NC(=O)C[n+]1ccc(Cc2ccc([N+](=O)[O-])cc2)cc1, which Potency is on record?
Its Potency is active: 5.8 µM.

With COc1cc(C(CCN2CCCC(C)C2)c2c(OC)cc(OC)c3c(-c4ccccc4)cc(=O)oc23)cc(OC)c1OC (stereo unspecified) as the compound, how does the Potency read?
Its Potency is inconclusive [inhibitor, single point].

Which Potency does the source give for CCCN1CCN(C(=O)c2ccc(-c3ccc([N+](=O)[O-])cc3)o2)CC1 here?
Its Potency is inconclusive [inhibitor, single point].

Which Potency does the source give for Cc1cccc(CS(=O)(=O)c2ncc(Cl)c(C(=O)Nc3ccc(F)cc3)n2)c1 here?
Its Potency is active: 1.3 µM.

With CCCCCCC(=O)N(O)C1CC(=O)N(c2ccc(Cl)cc2)C1=O (stereo unspecified) as the compound, how does the Potency read?
The Potency was active: 2.31 µM.

With CCc1nc2ccccc2n1Cc1ccc(F)cc1 as the compound, how does the Potency read?
The Potency was inconclusive [inhibitor, single point].

With CN1C/C(=C\c2ccc(N3CCOCC3)cc2)C(=O)/C(=C/c2ccc(N3CCOCC3)cc2)C1 as the compound, how does the Potency read?
Its Potency is inconclusive [inhibitor, single point].

Which Potency does the source give for Cc1ccnc(NC(=O)c2ccc(S(=O)(=O)NCc3ccco3)cc2)c1 here?
The Potency was active: 20.6 µM.

For Nc1ccc2cccnc2c1, which activity change, negative = growth inhibition is on record?
Its activity change, negative = growth inhibition is inconclusive: -33.4% [inhibitor].

With COc1ccc(NC(=O)CSc2nc3ccccc3n2CC(=O)N2CCCC(C)C2)cc1 (stereo unspecified) as the compound, how does the Potency read?
Its Potency is inconclusive [inhibitor, single point].

Which Potency does the source give for Cc1ccc(NC(=O)c2cc3c(Cl)nc4ccc(C)cc4c3s2)c(Cl)c1 here?
The Potency was “inactive”.

For O=C(Nc1ccccn1)c1cc2ccccc2o1, which Potency is on record?
Its Potency is active: 10.3 µM.

For Cc1cccc(C(=O)Nc2c(-c3ccc(F)cc3)nc3ccccn23)c1, which Potency is on record?
The Potency was inconclusive [inhibitor, partial curve].

For COC(=O)CN1C(=O)Nc2ccc(Br)cc2C1c1ccccc1 (stereo unspecified), which Potency is on record?
Its Potency is inconclusive [inhibitor, single point].

Which Potency does the source give for CCOC(=O)Cc1csc(NC(=S)NC(=O)c2ccc(C)cc2)n1 here?
Its Potency is inconclusive [inhibitor, single point].

Which Potency does the source give for C[C@@H](Nc1nc(Cl)nc2nc[nH]c12)c1ccccc1 here?
The Potency was active: 20 µM.

For O=C(O)CC1CCC1CC(=O)O (stereo unspecified), which Potency is on record?
The Potency was “inactive”.

For O=C(OCc1ccccc1)N1CCC2CC1c1c(-c3ccc(C(F)(F)F)cc3)cccc12 (stereo unspecified), which Potency is on record?
Its Potency is active: 16.4 µM.

With CC(=O)N(Cc1cccnc1)c1nc2c(C)cc(C)cc2s1 as the compound, how does the Potency read?
The Potency was inconclusive [inhibitor, single point].

For O=C(O)CCc1ccc(-c2ccc(Br)cc2)o1, which Potency is on record?
Its Potency is “inactive”.

With COc1ccc(-c2noc(CN3CCC(Cc4ccccc4)CC3)n2)cc1 as the compound, how does the Potency read?
The Potency was “inactive”.

Which Potency does the source give for Cc1ccc(Cn2nc(C)c(NC(=O)c3cc(C)no3)c2C)cc1 here?
The Potency was “inactive”.

With CCOc1ccccc1N1CC(c2nc3ccccc3n2CCOc2ccc(OC)cc2)CC1=O (stereo unspecified) as the compound, how does the Potency read?
The Potency was inconclusive [inhibitor, single point].

With c1ccc(Cc2c(-c3ccco3)nc3c4ccccc4ccn23)cc1 as the compound, how does the Potency read?
Its Potency is inconclusive [inhibitor, single point].

For CCOC(=O)c1sc(NC(=O)c2nc3ncccn3n2)c(C(=O)OC(C)C)c1C, which Potency is on record?
The Potency was “inactive”.

For Cc1ccc(NC(=S)NCCN(C2CCCCC2)C2CCCC2)cc1C, which Potency is on record?
Its Potency is active: 20.6 µM.

With COc1ccc(-c2n[nH]c(=S)n2-c2ccc3c(c2)OCCO3)cc1 as the compound, how does the Potency read?
The Potency was inconclusive [inhibitor, single point].

Which Potency does the source give for CCCNC(=O)CCn1cc(-c2ccc(OC)cc2)nc1-c1ccncc1 here?
Its Potency is “inactive”.

For Cc1oc(-c2ccccc2F)nc1CS(=O)(=O)CC(=O)N1CCc2ccccc21, which Potency is on record?
The Potency was inconclusive [inhibitor, single point].

Which Potency does the source give for COc1ccc(C(=O)COC(=O)C(CCSC)NS(=O)(=O)c2ccc(Cl)cc2)cc1 (stereo unspecified) here?
Its Potency is inconclusive [inhibitor, single point].

Which Potency does the source give for O=C(CSc1nnnn1C1CCCCC1)N1CCOCC1 here?
The Potency was inconclusive [inhibitor, single point].

With CCCCCc1cc(=O)oc2c(C(CCN(CC)CC)c3ccc(N(C)C)cc3)c(OC)cc(OC)c12 (stereo unspecified) as the compound, how does the Potency read?
The Potency was inconclusive [inhibitor, single point].

Which Potency does the source give for O=C(Cn1cnc2c(nnn2Cc2ccccc2)c1=O)c1ccccc1 here?
The Potency was inconclusive [inhibitor, single point].

With COC(=O)[C@@]12OC[C@]34[C@H]([C@@H](O)[C@@H]1O)[C@@]1(C)C(=O)C(O[C@@H]5OC(CO)[C@@H](O)[C@@H](O)[C@@H]5O)=C[C@@H](C)[C@@H]1C[C@H]3OC(=O)[C@H](OC(=O)/C=C(\C)C(C)(C)OC(C)=O)[C@@H]24 (stereo partly specified) as the compound, how does the Potency read?
Its Potency is active: 5.17 µM.

For N#Cc1c2ncn(CC(=O)c3ccc(Br)cc3)c(=O)c2c2n1CCC2, which Potency is on record?
The Potency was “inactive”.

For Cc1ccc2nc(-c3ccccc3)c(CN3CCN(c4ccccc4F)CC3)n2c1, which Potency is on record?
The Potency was inconclusive [inhibitor, single point].

For Cc1ccc(NS(=O)(=O)c2ccc3[nH]c4c(c3c2)CCCC4)c(C)c1, which Potency is on record?
The Potency was inconclusive [inhibitor, single point].

For COc1ccc(/C=N\NC(=O)CNC(=O)C2COc3ccccc3O2)cc1[N+](=O)[O-] (stereo unspecified), which Potency is on record?
The Potency was “inactive”.

Which Potency does the source give for CC(Cl)C(=O)Nc1cc(C(C)(C)C)nn1-c1ccccc1 (stereo unspecified) here?
The Potency was “inactive”.

Which Potency does the source give for CC(=O)c1c(C)[nH]c(C(=O)Nc2ccc(Cl)c(S(=O)(=O)N3CCOCC3)c2)c1C here?
The Potency was inconclusive [inhibitor, single point].

With COc1ccc(-c2nc3c4ccccc4ccn3c2CC2CCCCC2)cc1OC as the compound, how does the Potency read?
Its Potency is inconclusive [inhibitor, single point].
